Measured values: PMC9845330 (Communications Biology, 2023)
A number of entries come with more than one value. This list holds those alone. The source may hold further records. The values listed for one entry seem to repeat one measurement (runs, samples, wells or individuals). Records carry a tag for their origin. A, B and so on number the origins entry by entry. Non-standard residues stand in square brackets, D forms with d. Residues, ends and D or L forms follow the SMILES beside them. *: point of attachment. X1 = O=C(CCCC[C@@H]1SC[C@@H]2NC(=O)N[C@@H]21)NCCCOCCOCCOCCCN*; PEG12 = NCCOCCOCCOCCOCCOCCOCCOCCOCCOCCOCCOCCOCCC(=O)O

Tested on: H1299 cells
Test: In vitro saporin delivery, cell viability (CellTiter-GLO)
Format: cell-based, human
Conditions: H1299, up to 200 nM, 6 h exposure, viability at 72 h
Method: Fig. 4 MGS4_V8 effectively delivers active saporin to cancer cells. a H1299 cells were incubated biotinylated MGS4_V8 conjugated to streptavidin-saporin for 1 h, then washed, fixed and counterstained with an anti-saporin antibody (red), WGA-AF488 (green) and DAPI (blue). MGS4_V8 successfully delivers saporin into cancer cells while the control peptide, MGS4_V6 cannot. b MGS4_V8 and MGS4_V9 saporin-conjugates were serially diluted and incubated with H1299 and H2009 cells for 6 h after which, the MGS4-saporin conjugates were removed and complete growth media returned to the wells. At 72 h, viability was measured. IC50 values are provided in the inset. Individual measurements are shown. The mean is shown as an “X”. […]
The ability of MGS4_V8-saporin conjugate to induce cell death was determined.
Biotinylated peptide was conjugated to streptavidin-saporin (Advanced Targeting Systems Bio, San Diego, CA) in a 1:1 molar ratio. […] After 72 h, cell viability was measured using CellTiter-GLO® (Promega, Madison, WI). […] IC50s were calculated using GraphPad Prism® using log(agonist) vs. response–Variable slope (four parameters). […]
For all EC50 determinations, each peptide variant was tested on the indicated cell line with a minimum of 3 biological replicates and analyzed individually by flow cytometry. […] For the truncation experiments, EC50 were determined using one-site-specific binding. […]

For `CC(=O)N[C@@H](Cc1ccccc1)C(=O)N[C@@H](Cc1c[nH]cn1)C(=O)N[C@@H](C)C(=O)N[C@H](C(=O)N1CCC[C@H]1C(=O)N[C@@H](CCC(N)=O)C(=O)N[C@@H](CO)C(=O)N[C@@H](Cc1ccccc1)C(=O)N[C@@H](Cc1ccc(O)cc1)C(=O)N[C@H](C(=O)NCCOCCOCCOCCOCCOCCOCCOCCOCCOCCOCCOCCOCCC(=O)N[C@@H](CCC(=O)NCCCOCCOCCOCCCNC(=O)CCCC[C@@H]1SC[C@@H]2NC(=O)N[C@@H]21)C(N)=O)[C@@H](C)O)C(C)C` [MGS4_V8] (Ac-FHAVPQSFYT[PEG12]E(X1)-NH2), the toxicity without saporin was “showed any toxicity [passage A] and No reduction [passage B]”.
